Experimental data published in paper PMC6919601, “Identification of Plasmodium dipeptidyl aminopeptidase allosteric inhibitors by high throughput screening” (PLoS ONE, 2019).
Screen size: about 110,000 compounds; about 230 (0.21%) showed an effect of 50% or more. Some of the results follow.

These compounds were tested against DPAP1 (Plasmodium falciparum, UniProt Q8IIJ9) (assay: primary screen, percent inhibition; read by cleavage of a fluorogenic dipeptide substrate; higher = more effect of the substance).
Design: species or system P. falciparum D10 trophozoite lysates; single well
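Note: 30 min substrate incubation versus DMSO and 10 µM JCP410 controls.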

DPAP1, sequence (Q8IIJ9 whole entry, looked up): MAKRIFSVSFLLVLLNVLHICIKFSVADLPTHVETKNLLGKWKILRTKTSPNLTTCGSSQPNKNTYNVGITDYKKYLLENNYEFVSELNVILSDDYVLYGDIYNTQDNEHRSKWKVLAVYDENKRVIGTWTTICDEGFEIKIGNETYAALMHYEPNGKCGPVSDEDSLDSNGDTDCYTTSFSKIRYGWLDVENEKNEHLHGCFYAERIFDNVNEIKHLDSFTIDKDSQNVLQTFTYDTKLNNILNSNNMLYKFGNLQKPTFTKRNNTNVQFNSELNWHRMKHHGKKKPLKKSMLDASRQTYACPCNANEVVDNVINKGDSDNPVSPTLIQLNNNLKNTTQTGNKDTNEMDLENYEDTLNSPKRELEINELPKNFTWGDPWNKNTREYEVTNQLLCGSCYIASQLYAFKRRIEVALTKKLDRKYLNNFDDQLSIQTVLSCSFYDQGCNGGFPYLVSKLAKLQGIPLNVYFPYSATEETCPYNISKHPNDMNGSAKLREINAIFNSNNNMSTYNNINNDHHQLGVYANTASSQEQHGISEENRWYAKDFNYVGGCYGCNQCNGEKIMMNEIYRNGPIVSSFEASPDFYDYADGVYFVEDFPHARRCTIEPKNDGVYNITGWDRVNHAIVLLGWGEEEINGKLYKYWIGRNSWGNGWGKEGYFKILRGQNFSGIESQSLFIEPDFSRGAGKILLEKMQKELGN

Compound | % Inhibition @ 10 uM
COc1ccc(S(=O)(=O)N2CCN(C)CC2)cc1 | -4.4%
Cc1ccc(SCC(=O)NC(C)(C)C)cc1 | -4.48%
O=C(Nc1cnc2ccccc2c1)C12CC3CC(CC(C3)C1)C2 | -2.22%
O=C(Nc1nccs1)C1COc2ccccc2O1 (centres unmarked) | -6.06%
CCS(=O)(=O)c1nc(S(=O)(=O)c2ccc(C)cc2)c(NCCc2ccccc2)s1 | -5.89%
CCCN(CCC)CC(=O)Nc1cc(C)c2c(=O)oc3ccccc3c2n1 | -0.984%
CCn1c(SC(C)C)nc2sc3c(c2c1=O)CCC3 | 4.3%
CSc1ccc(/C=C/c2cc(C(F)(F)F)nc(O)n2)cc1 | 2.05%
O=C1CC(=O)NC(NOCc2ccc([N+](=O)[O-])cc2)=N1 | 2.81%
O=C(Nc1cccnc1)c1cc(-c2ccc3c(c2)OCO3)on1 | -2.47%
Cc1cccc(NC(=O)c2ccc3c(c2)C(=O)N(Cc2cccnc2)C3=O)c1C | -2.74%
COc1ccc(OC)c(-c2cc(C(=O)N3CCN(c4ncccn4)CC3)c3ccccc3n2)c1 | 0.64%
CCCN1CCC(NCc2ccccc2Cl)CC1 | -9.33%
C=CCOc1c(Br)cc(CNc2ccc3[nH]c(O)nc3c2)cc1OCC | -3.23%
CC1(C)c2ccccc2N2CCC(=O)NC21/C=C/c1cccnc1 (centres unmarked) | 3.86%
CC(C)c1ccc(C2C(C(=O)c3ccc(Br)cc3)=C(O)C(=O)N2c2nccs2)cc1 (centres unmarked) | 3.6%
O=C(Nc1ccc(S(=O)(=O)NC2CCCC2)cc1)c1ccc(Cl)cc1Cl | 5.07%
CCCOC(=O)c1ccc(OCC(O)CN2CCN(C(=O)c3ccccc3)CC2)cc1 (centres unmarked) | -4.74%
CCCCOc1cccc(C2c3c(oc4ccccc4c3=O)C(=O)N2CCCN2CCOCC2)c1 (centres unmarked) | -1.11%
Fc1ccccc1OCCCCN1CCCC1 | 2.26%
COc1ccc(OCC(=O)Nc2sc(Cc3ccccc3)c(C)c2C(N)=O)cc1 | 0.795%
O[C@]12CCCC[C@@H]1[C@@H](c1cccc(Cl)c1)NCC2 | -2.08%
Cc1ccc2c(CC(=O)NCc3ccc4c(c3)OCO4)coc2c1C | 5.7%
Cc1nc2nc(SCC(=O)NCCN3CCCCCC3)nn2c(C)c1Cc1ccccc1 | -1.29%
Cc1cccc(C)c1NC(=O)C(NC(=O)CN1C(=O)c2ccccc2C1=O)c1ccc(Cl)cc1Cl (centres unmarked) | -1.45%
CCCCOc1ccc(N2C(=O)CC(N3CCOCC3)C2=O)cc1 (centres unmarked) | 2.67%

Compound | % Inhibition @ 10 uM
COc1ccccc1N/C(C)=C1/C(=O)NC(=O)N(C)C1=O | -6.03%
Cc1nnc2n1NC(c1ccc(Cl)cc1)C(C(=O)NCC(C)C)S2 (centres unmarked) | -5.41%
CCCc1ccc(OCC(O)CNC(C)C)cc1 (centres unmarked) | 5.61%
CC1=CSC2=NC(=O)/C(=C/c3cc(C)n(Cc4ccccc4)c3C)C(=N)N12 | -1.17%
CCC(C)NC(=O)c1cnn(-c2ccc(F)cc2)c1C1CCN(C(=O)OC(C)(C)C)CC1 (centres unmarked) | 3.11%
CCOC(=O)c1ccc(-c2ccc(/C=C3/C(=N)N4C(=NC3=O)SN=C4S(C)(=O)=O)o2)cc1 | -5.27%
OC(C#CCN1CCCC1)c1ccccc1 (centres unmarked) | -3.9%
O=C(c1cc2nc(-c3cccs3)cc(C(F)(F)F)n2n1)N1CCCCCC1 | 0.0538%
CC1CN(S(=O)(=O)c2ccc(Cl)c(C(=O)Nc3cccc(O)c3)c2)CC(C)O1 (centres unmarked) | -6.38%
CCCCCCNS(=O)(=O)c1ccccc1 | 2.51%
CC/C(=N\CCCO)c1c(C(F)(F)F)nn(-c2nc3ccccc3s2)c1O | 0.317%
CC1CCN(C(=O)Cn2ncc3c2-c2ccccc2OC3)CC1 | 3.13%
O=c1oc2ccc3ccccc3c2cc1S(=O)(=O)c1ccc(F)cc1 | -3.1%
COc1cc(C=O)ccc1Oc1nc2ccccc2n2nnnc12 | 3.5%
CCOC(=O)CN(CC)C(C)c1ccccc1 (centres unmarked) | 0.219%
Fc1ccc(N2N=C(c3cccs3)CC2c2cccs2)c(F)c1 (centres unmarked) | -1.41%
O=C(Nc1ccc2c(c1)OCCO2)c1ccc(CNS(=O)(=O)c2cccc(Cl)c2)cc1 | 2.01%
Cc1ccc(C2C(C#N)=C(N)Oc3[nH]nc(-c4ccc(F)cc4)c32)o1 (centres unmarked) | -0.759%
c1nc(SCCCCSc2nc[nH]n2)n[nH]1 | -6.78%
Cc1cc(OCC(=O)N2CCCc3ccccc32)ccc1Br | 1.02%
C=CCNC(=O)c1ccccc1NC(=O)c1ccc(Br)cc1 | -5.81%
Cc1nc2cc(C(=O)NCCc3ccccc3)ccc2n1-c1ccc(F)cc1F | -3.93%
CC1CCN(C(=O)Nc2ccccc2C(F)(F)F)CC1 | -1.38%
COCCNC(=O)C1CCCN(c2nnc(C)c3c(C)n(-c4ccccc4)nc23)C1 (centres unmarked) | 5.04%
CCOc1ccc2ccccc2c1/C=C1\Sc2ccccc2C1=O | -2.39%
COc1ccc(OC)c(CNc2ccc(Br)cc2)c1 | -7.06%

Compound | % Inhibition @ 10 uM
CCN(CC)CCNC(=O)Cn1ncc2c3cc(C)ccc3nc-2c1O | -1.97%
COc1ccccc1C(=O)N1c2ccccc2C(Nc2ccccc2)CC1C (centres unmarked) | -8.6%
CCOc1ccc(NC(=O)c2ccccc2OC)cc1 | 5.66%
CCOC(=O)N1CCN(Cc2ccc(Br)cc2)CC1 | -3.57%
COc1ccc(CNc2ccc(F)cc2C)cc1 | -0.0505%
O=C(NCCO)/C(=C/c1ccc2c(c1)OCO2)NC(=O)c1ccc(Br)cc1 | 25.4%
O=C(CCCc1nc(-c2ccccc2)no1)NCc1ccco1 | -2.92%
CCOC(=O)c1c(S(=O)(=O)NCc2ccccc2OCC)c(C)n(C)c1C | -2.46%
C=CCOc1c(Cl)cc(CNc2ccc(OC)cc2)cc1OC | 0.812%
CC1CCCC(C)N1C(=O)/C=C/c1ccccc1 (centres unmarked) | 4.66%
CCOc1ccc(-c2[nH]nc3c2C(c2ccc(O)cc2)C(C#N)=C(N)O3)c(OCC)c1 (centres unmarked) | -0.759%
Cc1ccnc(Sc2nc3c(c(=O)[nH]c(=O)n3C)n2CCCc2ccccc2)n1 | 4%
CCOc1ccc(C(=O)Nc2cccc(C(C)=O)c2)cc1 | -11%
Fc1ccc(-c2noc3ncnc(NC4CCCc5ccccc54)c23)cc1 (centres unmarked) | 3.76%
CC1(C)Cc2c(sc3nc4n(-c5ccccc5)cnn4c(=O)c23)CO1 | 0.823%
Cc1ccccc1NC(=O)NCc1ccccn1 | -8.38%
CC(C)NC(=O)Cn1cc(C(=O)C(C)(C)C)c2ccccc21 | 0.0289%
CC(C)Nc1nn2nnnc2c2ccccc12 | -4.32%
COc1cc(-n2c(C)nc3cc(C(=O)NCc4ccco4)ccc32)cc(OC)c1OC | -0.458%
CN1C2CCC1CC(O)(c1ccccc1)C2 (centres unmarked) | -1.77%
Cc1ccccc1Cn1cnc2ccccc2c1=O | -8.88%
COc1ccc2nc(N/C=C3\C(=O)N(C)C(=O)C(C#N)=C3C)sc2c1 | -2.77%
Cc1onc(-c2c(Cl)cccc2Cl)c1C(=O)Nc1ccc(O)cc1 | 1.05%
COc1ccccc1OCC(=O)Nc1ccc(S(=O)(=O)Nc2cc(C)cc(C)c2)cc1 | 4.53%
OC1CCCCC1CN(Cc1ccccc1)Cc1ccccc1 (centres unmarked) | 0.986%
Cc1ccc(C)c(N2C(=O)C3C4CCC(C4)C3C2=O)c1 (centres unmarked) | -4.84%

Compound | % Inhibition @ 10 uM
Cc1nc2ccccc2c2c1C(=O)N(C(c1ccccc1)c1ccccc1)C2=O | 2.64%
OCC1CCCCN1C(=S)NCc1ccccc1 (centres unmarked) | -4.35%
Cc1cc(C(=O)Nc2cccc(-c3nc4ccccc4o3)c2)ccc1[N+](=O)[O-] | -2.51%
CCC(C)Cn1c(COC)nc2ccccc21 (centres unmarked) | -0.551%
O=S(=O)(Cc1ccc(F)cc1)c1oc(-c2cccs2)nc1S(=O)(=O)c1ccccc1 | -1.22%
CCc1ccccc1NC(=O)c1cc2ccccc2cc1O | -0.231%
CC1CCN(S(=O)(=O)c2ccc3c(ccn3CCC(=O)N3CCN(c4ccccn4)CC3)c2)CC1 | -2.18%
CCc1c(-c2ccccc2)nc2ccccc2c1C(=O)NCCCOC | -0.519%
CCc1ccccc1NC(=O)c1cccc([N+](=O)[O-])c1 | -3.13%
CCOc1ccc(NS(=O)(=O)c2ccc(NC(=O)c3ccc(OC)cc3)cc2)cc1 | -11.4%
CC(=O)C1=C(C)NC(c2ccc(Cl)cc2Cl)NC1c1ccc(Cl)cc1Cl (centres unmarked) | 6.7%
CCOC(=O)c1oc2ccc(OC)cc2c1NC(=O)CN1CCN(C)CC1 | 3.34%
CCC1CCc2c(sc(NC(=O)c3ccco3)c2C(N)=O)C1 (centres unmarked) | 0.206%
COc1ccc(C(=O)N2CCCCCC2)cc1OC | 4.73%
COc1cc(CN2CCN(C(=O)COc3ccccc3)CC2)cc(OC)c1O | -7.23%
C[C@@H](C[C@H](NC(=O)c1ccc(-c2ccccc2Cl)cc1)C(=O)NC1(C#N)CCS(=O)(=O)CC1)c1ccccc1 | -1.82%
COc1cccc(C2Oc3ccccc3C3CC(c4cccs4)=NN32)c1OCC(=O)O (centres unmarked) | 23.4%
CN(C)C1(c2cccs2)CS(=O)(=O)C1 | -1.74%
COc1cccc(-c2cc(C(=O)O)c3cc(Br)ccc3n2)c1 | 3.53%
CCOc1ccc2oc(=O)cc(CN3CCN(C(=O)c4ccccc4Br)CC3)c2c1 | 3.88%
CCc1ccccc1N(CC(=O)N1CCN(c2ccccc2OC)CC1)S(C)(=O)=O | -8%
CCOc1ccccc1NC(=O)CN(c1ccc(C)cc1)S(=O)(=O)c1ccc(F)cc1 | 0.324%
COC(Cc1ccccc1OC(C)C)C(=O)c1ccccc1 (centres unmarked) | -0.303%
